± gives the standard deviation of the averaged measurements. The list shows a part of the results.
system: PfAP2-G AP2 domain (GST-tagged); test: gcPBM binding intensity (ln(normalized median fluorescence intensity)); higher = stronger DNA binding
Procedure, shortened: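 After 1 h on an Agilent 4 × 180k array of primer-extended double-stranded 36-bp intergenic genomic probes and negative controls, bound GST-tagged P. falciparum DNA-binding domains were detected with Alexa488 anti-GST antibody and scanned at 488 nm. The domains had been expressed in E. coli, and binding took place in 1× PBS with 1% milk, 0.2 mg/ml BSA, 0.5% salmon testes DNA and 0.03% Triton X-100. Binding intensity is the highest Masliner-normalised natural-log median intensity across replicate spots of either probe orientation.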

Sequence	gcPBM binding intensity (ln)
AATAATTAAATATATTTATAACAGGAAAATATTTAT [XGTACX_negctrl_site175]	10.2 ± 0.16
ATAAATTATATTCAAGTGCATGTAACTTATTATTAT	9.92 ± 0.13
ATATATATATAAATATAAATATATATATATATATAT [CACACA_negctrl_site1685]	9.93 ± 0.87
TTATAAGATTTATGTACACACATATACACCCCTCTA [CACACA_site4562]	11.5 ± 0.83
TATATATAGAAACACACACACACATATATATATATT [CACACA_site2539]	10 ± 0.16
AAAAAAATCACATAATATACTTTATTTTATTTTGTA [GTGCAC_negctrl_site562]	9.605 ± 0.049
ACAAAGAACTATAATACACACAAGAATATATTGGAT [CACACA_site7771]	10 ± 0.085
AATATATTGCACCATTGGACCTGAATAATTCTTCCA [CACACA_negctrl_site1071]	10.4 ± 0.41
GTAAGAAACGGACACACACACATATATATATATATA [CACACA_site4593]	11.2 ± 0.83
ATATATATAATATGATGTACTATTTTGATAAAAAAT [XGTACX_site3975]	11.2 ± 0.81
TAAATAATCATAGTTCTACACACCTATATTGCAAAA [CACACA_site8190]	9.975 ± 0.092
AAAAAAAAAAATTCCAGTACACACAATAATACTAAA [XGTACX_site5930]	11.1 ± 0.69
TACAAAATATGGTAATAAAGTAGTTACATGAATTGG [XGTACX_negctrl_site522]	10.06 ± 0.042
ATATTTTTTATAAAATGTACTTATTATTAGAATATA [XGTACX_site2460]	11.2 ± 0.83
ACATATAAGTTATATACACACAATAATATGTAAATA [CACACA_site6766]	9.98 ± 0.042
AATAAAAACAAACAAAAAAACAAATAAATAAATAAA [CACACA_negctrl_site483]	9.62 ± 0.099
TAGTAAGAATTACTGTGTACTAAAATATTAAAAAGT [XGTACX_site2578]	11.6 ± 1.1
AAATAGTCTTCTCTTGCATGTAACAAATATATATAT [TGCATGCA_site428]	10 ± 0.18
TTTTTTTATAAAAATGAACACACACCGATATATATA [CACACA_site9161]	10.4 ± 0.35

Sequence	gcPBM binding intensity (ln)
GTTATAGAAGCATTCACACACACACGGACATACACA [CACACA_site6801]	11.1 ± 0.68
AATATATACATATGTATGCACTTTTTAATTATTTTT	10.09 ± 0.099
TATTATAATATATTTGTGCACATAATACCTCCGCTA [GTGCAC_site9570]	10.5 ± 0.26
TTTTCTCAATTTTGGTGTACTTTTTTCTTAACACAT [XGTACX_site8918]	11.7 ± 1
TATTTAAAATATTAAATTTGTAAAGTTCGAGGGAAG [GTGCAC_negctrl_site337]	9.68 ± 0.15
TATACATATGTATGCACACATACATACCCATATAAT [CACACA_site5842]	10 ± 0.071
CTATATATAAAATATTGTACTTATTTTTATTACATC [XGTACX_site3963]	11.5 ± 0.88
AAAGGTTTATCTGATACACACATAAGTGATCAGGTT [CACACA_site6233]	9.88 ± 0.13
TAAATTAAAAAACATAAACTATTGGAAACGCATTGA [CACACA_negctrl_site935]	10.07 ± 0.078
GAAAAAAAAATATCTTGTACTTACATAACTATTGGT [XGTACX_site5326]	11.1 ± 0.67
AATGATAATCTATTATGTACACATATATTCTTATGT [XGTACX_site4148]	11.5 ± 0.88
ACACAATAAACATTATGTACATATAATGTTCTGTGT [XGTACX_site3381]	11.1 ± 0.66
TAATATATAACGTGCACACACACATTTACGTATGAA [CACACA_site1832]	10.5 ± 0.26
AGCACCCACCAACACACACACACACCCACCCACCCA [CACACA_site8011]	10.6 ± 0.2
TATACATATTTCTATTGTACATAAACTAAATCTTCA [XGTACX_site28]	10.8 ± 0.49
ACAATAAATATGTGGTTGCACTTATAATATATTTAT	10.2 ± 0.085
TACAATTGTAAAGGCGCACACATATATATATATATA [CACACA_site1392]	10.5 ± 0.35
GATATTATTGCATATTTACACACGTACTAATTTAAA [CACACA_site8231]	11 ± 0.63
TTTTTATAATAAAAAAATATAACTATATTAAGCCAC [CACACA_negctrl_site555]	10.1 ± 0.2

Sequence	gcPBM binding intensity (ln)
AAGAACTCATTAATAATGTAATATTTTATAATTTAG [CACACA_negctrl_site321]	9.505 ± 0.049
ATAATAAAACTCAAAGTGCATTAGAATAATTGTAAA	9.78 ± 0.2
ATTCATAAATATATTTGTACATATTATATATAAATA [XGTACX_site1907]	10.9 ± 0.53
CATACATACAGACACACACACATATTTATATTTATA [CACACA_site6172]	10.2 ± 0.2
TCCCTTAATTTTGTGTGTACATATAATATATTTTTA [XGTACX_site2789]	11.5 ± 0.78
GTTAATTATTAAATTTGTACTCATATATATTATATA [XGTACX_site6862]	11.3 ± 0.88
TATTTTTATCAATTCACACATAAATATATTTATATG [CACACA_site5547]	10.12 ± 0.064
CACAGTGATATAAAAACACACATGAATTAAAATTTC [CACACA_site4999]	9.855 ± 0.078
AATTAATAAGAAAGGTGTACAGAAAAAAAAAAATAT [XGTACX_site2106]	11.5 ± 0.8
GGAATAGTGATATATACACACAAATACATATTTATA [CACACA_site6183]	10 ± 0.014
TTCTTAATTTAAAATTGTACTTAAGTAATACTTATG [XGTACX_site3928]	11.2 ± 0.5
GAAGTTTTTTAAAGATGTACTTTTTAAAAATAATGT [XGTACX_site1975]	11.5 ± 0.72
TTATTTACTTATTGCACACATATAAAATATATTTAT [CACACA_site3101]	10.7 ± 0.6
AAAAAAAAAAAAAATACACACATATATAAATAAATA [CACACA_site6459]	9.91 ± 0.19
AATATATAGGAAAAAGTGCAATAAATGAACAAAATA	10.2 ± 0.071
TTTAATAAAATTCTAGTGCAAAAAGGAAAAAACAAA [GTGCAC_site9642]	10.1 ± 0.33
AAAAGAAATGACAAATTGGATAGATAATAGGGGGTA [GTGCAC_negctrl_site262]	10.5 ± 0.21
AATTTTGATATATATTGTACGCATTTTTAAATGCCA [XGTACX_site7694]	11.5 ± 1.1
TATATATATATATATGTGCACTGAAAGAATTATACA [GTGCAC_site9586]	10.6 ± 0.62
